Some of the results follow.

The subject of this assay is S. aureus RN4220. Nature of the assay: growth inhibition call (relative growth <= 0.2). The conditions noted are these: 50 µM.
In the case of `O=C(N[C@@H]1C=C[C@@H](CC(=O)N2CCOCC2)O[C@@H]1CO)c1ccc2c(c1)OCO2`, the growth inhibition call is “inactive”.

On to `C[C@H]1CN([C@@H](C)CO)C(=O)c2cc(NS(=O)(=O)c3cn(C)cn3)ccc2O[C@H]1CN(C)S(=O)(=O)c1ccccc1`, for which the growth inhibition call was “inactive”.

As for `CNC(=O)CN1C(=O)c2ccccc2S1(=O)=O`, the growth inhibition call was “inactive”.

As to `Cc1ccc(S(=O)(=O)Nc2ccc3c(c2)C(=O)N([C@@H](C)CO)C[C@H](C)[C@H](CN(C)C(=O)NC(C)C)O3)cc1`, the growth inhibition call is “inactive”.

In the case of `COc1cc2nc(N3CCN(C(=O)C4COc5ccccc5O4)CC3)nc(N)c2cc1OC.CS(=O)(=O)O` (stereo not given), the growth inhibition call is “inactive”.

As for `COCC(=O)Nc1ccc2c(c1)OC[C@@H](C)N(C(=O)Cc1ccccn1)C[C@H](C)[C@@H](OC)CN(C)C2=O`, the growth inhibition call is “inactive”.

Regarding `CC(C)CC#Cc1ccc2c(c1)O[C@H](CN(C)C(=O)C1CCOCC1)[C@@H](C)CN([C@@H](C)CO)S2(=O)=O`, the growth inhibition call is “inactive”.

For `Cc1noc(C)c1S(=O)(=O)Nc1ccc2c(c1)C(=O)N([C@H](C)CO)C[C@@H](C)[C@H](CN(C)Cc1ccc(Oc3ccccc3)cc1)O2`, the growth inhibition call was “inactive”.

On to `C[C@H]1CN([C@@H](C)CO)C(=O)c2cc(NS(=O)(=O)c3cn(C)cn3)ccc2O[C@H]1CN(C)S(=O)(=O)c1ccc(Cl)cc1`, for which the growth inhibition call was “inactive”.

As to `NCC[C@H]1CC[C@@H](NC(=O)Cc2ccncc2)[C@H](CO)O1`, the growth inhibition call is “inactive”.

For `COCC#Cc1ccc2c(c1)O[C@H](CN(C)C(=O)CN(C)C)[C@H](C)CN([C@@H](C)CO)S2(=O)=O`, the growth inhibition call is “inactive”.

With `C[C@@H]1O[C@@H](O[C@H]2[C@H](O)[C@@H](O)[C@H](OC(=O)[C@]34CCC(C)(C)C[C@H]3C3=CC[C@H]5[C@@]6(C)CC[C@H](O[C@@H]7O[C@H](C(=O)O)[C@@H](O)[C@H](O)[C@H]7O)C(C)(C)[C@@H]6CC[C@@]5(C)[C@]3(C)CC4)O[C@@H]2CO)[C@H](O)[C@H](O)[C@H]1O`, the growth inhibition call is “inactive”.

In the case of `C[C@@H]1CN([C@@H](C)CO)C(=O)c2cccc(NC(=O)c3nc4ccccc4s3)c2O[C@@H]1CN(C)Cc1ccc(Cl)c(Cl)c1`, the growth inhibition call is “inactive”.

In the case of `CN1CCN(C)[C@@H](CO)C1`, the growth inhibition call was “inactive”.

As to `COc1ccc(S(=O)(=O)Nc2ccc3c(c2)C(=O)N([C@H](C)CO)C[C@H](C)[C@H](CN(C)C(=O)Nc2cccc4ccccc24)OCCCC[C@@H](C)O3)cc1`, the growth inhibition call was “inactive”.

On to `C[C@@H]1CN([C@@H](C)CO)C(=O)c2ccccc2-c2ccccc2CO[C@@H]1CN(C)Cc1cccc2c1OCCCO2`, for which the growth inhibition call is “inactive”.

With `C[C@H](CO)N1C[C@H](C)[C@@H](CN(C)C(=O)CN2CCOCC2)Oc2cc(Br)ccc2S1(=O)=O`, the growth inhibition call is “inactive”.

Take `C[C@H]1CN([C@@H](C)CO)C(=O)c2cccc(NC(=O)Nc3ccc(C(F)(F)F)cc3)c2O[C@@H]1CN(C)C(=O)Nc1ccccc1`: the growth inhibition call was “active”.

Turning to `COc1ccc(S(=O)(=O)N(C)C[C@H]2Oc3ccc(NS(=O)(=O)c4cn(C)cn4)cc3C(=O)N([C@@H](C)CO)C[C@H]2C)cc1`, the growth inhibition call is “inactive”.

For the compound `C[C@H](CO)N1C[C@H](C)[C@@H](CN(C)S(=O)(=O)c2ccccc2)OCCCC[C@H](C)Oc2ccc(NC(=O)C3CCCCC3)cc2C1=O`, the growth inhibition call was “inactive”.

These data come from the antibiotic and cytotoxicity screens of Wong et al. (2023).
